# Data from the supplement of paper PMC10126150.
# Values marked as one replicate rest on one cluster of the flow cell; about a third of the high ones do not repeat.
# Tested on: ATP
# Test: switch fluorescence ratio, 500 uM ATP over buffer (Cy3 cluster intensity, sum of 5 cycles each) (fold (ratio)); higher = stronger signal-on switching upon ATP binding; sequences stand for … in TCGTCGGCAGCGTCAGATGTGTATAAGAGACAGTTTTTTTTTTTTTTTTTTTTTTTTT…TC
# Details: aptamer strand: ATP DNA aptamer (quencher-CACCTGGGGGAGTATTGCGGAGGAAGG + anchor), 100 nM annealed; ATP concentration: 500 uM; one replicate
# Summary of the method: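 After annealing to 100 nM quencher-labelled ATP aptamer, Cy3-labelled switching-strand clusters on a modified Illumina MiSeq flow-cell were imaged in selection buffer. A second image followed after 15 min with 500 uM ATP at 22 °C, and five such buffer/ATP cycles were done, each separated by NaOH stripping and re-annealing. The fluorescence ratio, averaged per switch-domain sequence, is summed target-cycle over summed buffer-cycle Cy3 intensity per cluster, with clusters outside 100-1000 RFU excluded.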
# 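Note: ATP exposure 15 min at 22 °C before imaging.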
row,Sequence,switch fluorescence ratio
1,AGGAGGGGCA,1
2,CATGAGGTT,1.01
3,TGTTGACACT,0.934
4,CCTTTAAGAA,0.984
5,CAATGCCCGC,0.954
6,CGTTCTACAC,1.04
7,AAGAGTTGGG,0.986
8,CGCGGATATA,1.06
9,CGGATTGCAT,1.05
10,CAACGGGGCC,0.95
11,TTACGGGGA,1.02
12,CTCTGGGACG,0.942
13,ATTTTATAGA,0.997
14,CAGTAGTGGG,1
15,AGAATCTCCA,1.03
16,CAGTTGGTAA,1
17,GTCGACACTG,1.02
18,TACGCTGGTC,1.1
19,GTATGGC,1
20,GTTGAAGTGC,1.03
21,TGCAAACCGG,1.04
22,CTTCCCTAGT,1.16
23,GCGTGTGACA,0.989

row,Sequence,switch fluorescence ratio
1,AACCCGCGTA,1.16
2,TCTGAGCCGG,1.02
3,CAGCGCGAAA,0.996
4,ATAAATCTGC,0.997
5,CGGGTACGCA,1.05
6,AGCCCTTGTG,1.07
7,ACGTGCCCGA,1
8,ACGGTGAACG,1.03
9,ACTGCTTCAC,1.12
10,ACTATCTGGT,0.974
11,AAACGGGTGG,1.05
12,TCACTTGATT,0.98
13,GCCGCGGATA,1.17
14,AGTCATGCGA,1.03
15,CGGGATTACA,0.99
16,CTGTAGCTTG,1.09
17,AAACGCAGGC,1.58
18,TAAAACGGTC,1.11
19,GACTAGGACA,1.02
20,GCGGGCCTG,0.985
21,ATGGTTCCTA,0.979
22,CTCATGGCTT,1.01
23,AACACCCCCA,1.1

row,Sequence,switch fluorescence ratio
1,GGAGTCTTAC,1.03
2,GTCATAGTTT,1.02
3,AAAGAACGG,1.04
4,ACGTAGATTG,1
5,ACGCGGAATA,1.09
6,ACATTGGCGC,1.03
7,TTTCTTAGTC,1.01
8,AGAGCGTCTC,1.05
9,CAGCAGTTGG,0.999
10,GAAAGCCAGG,1.16
11,AATACGAATG,0.992
12,TATTTCCCTA,0.988
13,GACTTATGAC,1.02
14,CACCAACCCT,1.16
15,GCATTCAGTT,0.956
16,TAATACAGGT,1.07
17,GCTGAGTTAA,1.01
18,TGGCGTTCGA,1.04
19,TTTCTAGTAG,0.99
20,TATATATATA,0.985
21,GTGGAATGTG,0.935
22,ATCGTCGTG,0.983
23,CGCACTTTGA,1.08

row,Sequence,switch fluorescence ratio
1,GCCACAAGGC,0.981
2,AAAAATTTCT,0.969
3,TTGGCCCGG,1.01
4,ACGACTCATT,1.2
5,TACGACCGCG,1.13
6,TGCAGGCTT,1.03
7,AGGTGAATAT,1.03
8,TGACGACCCC,2
9,CCAAAGCTTT,1.33
10,ACATTTCAAC,1.01
11,GCGGGGTCTT,1.03
12,TCAACAAGG,1.43
13,TACATGTACT,1.12
14,ATGCCAAGCG,1.02
15,ATGCTGCGGA,1.02
16,TGGTGCAATG,1.12
17,GTGGGGAATT,1.01
18,GTTTAGGCT,0.965
19,CCATGCTCGG,1
20,CCGAGCTGG,2.23
21,ATGTGCAGAA,0.987
22,AAATAAGGCA,0.954
23,GTTGTAGGG,1

row,Sequence,switch fluorescence ratio
1,ATGTACTT,1.08
2,TCTCCTGTTC,1.07
3,GCAATAGTCG,3.37
4,CTTGAGGCTT,0.941
5,CCTATGCATG,1.78
6,ATTGACCGAG,1
7,GGATAATTGG,1.01
8,TCGTCCCAGG,2.81
9,AGACCCGTA,1.04
10,CTATTGTGGT,0.959
11,GAAATTACGG,1.03
12,ACGCCGGTGT,1.02
13,GGGCGTCCGT,1.04
14,TATCGGCATT,1.03
15,GATTCGAGGC,1.08
16,CGTGGAAGTC,0.955
17,TGGTCCGCGT,1.22
18,CTTACAGGAG,1.04
19,ATCAGTTTGA,0.998
20,AACTGTGGCG,0.967
21,GGGTTTGCGG,1.01
22,GTGAAACGCG,0.972
23,ATGGGCGCCT,0.998

row,Sequence,switch fluorescence ratio
1,TACGGGGATT,1
2,AGTAGTATAG,1.02
3,ACGGTCATTC,1.02
4,CAGGGGCCAC,0.994
5,CTCGCACCGG,1.13
6,GTAGGGTACG,0.993
7,GATAAAGGGG,1.01
8,ACCCCCCTGG,1.16
9,TACGCGGGCC,1.02
10,CACTGTAGAT,1.11
11,TATGTTTGCG,0.995
12,ACACCCATGA,1.2
13,ACTTCTTTTG,0.951
14,ACTGTGTCAC,1.05
15,ATTGCCGTGG,0.965
16,ACCTGGTTGA,1.03
17,TGACAGTAGG,0.974
18,TTTATGAGGC,0.994
19,GCCCGCAGCG,1.48
20,CCGGGTCGTT,0.998
21,TGCACGCT,1.03
22,TTCTTTGTGG,0.983
23,ACCTGCGGCA,1.09

row,Sequence,switch fluorescence ratio
1,TCGAGCTTTT,0.995
2,ATGGCACATC,1.45
3,CGCCATTCTG,1.04
4,GGTCATTAAG,1.03
5,TGTCGGAGTA,0.987
6,ACAATTCGGG,1.04
7,TTTACCCTAA,1
8,CTTACATTTG,1.01
9,TATAAGTCTT,0.985
10,TTCCTAGTTA,1.01
11,GGCTTCAGCG,0.968
12,ATACCAGCGC,0.996
13,GGATGGT,0.959
14,CGTCTATTG,0.948
15,TGCAAAAAAG,1.08
16,ATTGCCTACT,0.936
17,CGGAATTATT,0.972
18,TACTTCAAAA,1.04
19,TCAGTCGTG,0.974
20,CGCCCTTACT,1.59
